The supplement of paper PMC11876631
Where a chain is given by its changes, count along the chain named. Names may count otherwise. ± gives the standard deviation of the averaged measurements. Laboratory Escherichia coli strains with one amino-acid change in an essential protein, pooled on minimal glucose agar with carbenicillin or gentamicin at twice the control MIC (plus kanamycin and chloramphenicol for the plasmids), 48 h. Fold change of barcode share against drug-free plates; higher = less susceptible. Active = above 20 in both replicates (the paper's putatively resistant). '<' = one read or none on drug, '>' = one read or none on a drug-free plate. Shares are relative, so most strains fall below 1 when a few take over. Listed are strains with at least 15 reads on both drug-free plates, and hits; most hits rest on fewer reference reads. Replicate rank correlation about 0.5. Edits are read from barcodes.

B1: glyQ V180W (protein)
chain: MQKFDTRTFQGLILTLQDYWARQGCTIVQPLDMEVGAGTSHPMTCLRELGPEPMAAAYVQPSRRPTDGRYGENPNRLQHYYQFQVVIKPSPDNIQELYLGSLKELGMDPTIHDIRFVEDNWENPTLGAWGLGWEVWLNGMEVTQFTYFQQVGGLECKPVTGEITYGLERLAMYIQGVDSWYDLVWSDGPLGKTTYGDVFHQNEVEQSTYNFEYADVDFLFTCFEQYEKEAQQLLALENPLPLPAYERILKAAHSFNLLDARKAISVTERQRYILRIRTLTKAVAEAYYASREALGFPMCNKDK
B2: glyQ V180Q (protein)
chain: B1 chain with W180Q
B3: glyQ V180D (protein)
chain: B1 chain with W180D
B4: glyQ V180P (protein)
chain: B1 chain with W180P
B5: glyQ L167A (protein)
chain: B1 chain with L167A, W180V
B6: glyQ L170Q (protein)
chain: B1 chain with L170Q, W180V
B7: glyQ L170P (protein)
chain: B1 chain with L170P, W180V
B8: accA V195Q (protein)
chain: MSLNFLDFEQPIAELEAKIDSLTAVSRQDEKLDINIDEEVHRLREKSVELTRKIFADLGAWQIAQLARHPQRPYTLDYVRLAFDEFDELAGDRAYADDKAIVGGIARLDGRPVMIIGHQKGRETKEKIRRNFGMPAPEGYRKALRLMQMAERFKMPIITFIDTPGAYPGVGAEERGQSEAIARNLREMSRLGVPQVCTVIGEGGSGGALAIGVGDKVNMLQYSTYSVISPEGCASILWKSADKAPLAAEAMGIIAPRLKELKLIDSIIPEPLGGAHRNPEAMAASLKAQLLADLADLDVLSTEDLKNRRYQRLMSYGYA
B9: gmk F100A (protein)
chain: MAQGTLYIVSAPSGAGKSSLIQALLKTQPLYDTQVSVSHTTRQPRPGEVHGEHYFFVNHDEFKEMISRDAFLEHAEVFGNYYGTSREAIEQVLATGVDVALDIDWQGAQQIRQKMPHARSIFILPPSKIELDRRLRGRGQDSEEVIAKRMAQAVAEMSHYAEYDYLIVNDDFDTALTDLKTIIRAERLRMSRQKQRHDALISKLLAD
B10: gmk F100W (protein)
chain: B9 chain with A100W
B11: gmk F100Q (protein)
chain: B9 chain with A100Q
B12: gmk L101A (protein)
chain: B9 chain with A100F, L101A
B13: gmk L101Q (protein)
chain: B9 chain with A100F, L101Q
B14: gmk L101D (protein)
chain: B9 chain with A100F, L101D
B15: gmk F122A (protein)
chain: B9 chain with A100F, F122A
B16: gmk F122W (protein)
chain: B9 chain with A100F, F122W
B17: gmk F122Q (protein)
chain: B9 chain with A100F, F122Q

Molecular target: Escherichia coli (laboratory strain)
Experiment: barcode share on antibiotic plates over drug-free plates; higher = less susceptible
Experimental: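 A pool of E. coli strains, each edited to carry one amino-acid change in an essential protein, was grown for 48 h on minimal glucose agar with or without antibiotic; strain barcodes were sequenced; mean of two replicates.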

[1] = antibiotic: carbenicillin, 2× MIC (3.1 µg/mL)
[2] = antibiotic: gentamicin, 2× MIC (MIC 0.45 µg/mL)

Row | Protein | fold change of barcode share [1] | fold change of barcode share [2]
1 | B1 | 0.331 ± 0.092 | 0.00771 ± 0.0063
2 | B2 | 0.3 ± 0.061 | 0.0111 ± 0.0093
3 | B3 | 0.328 ± 0.06 | < 0.00694
4 | B4 | 0.341 ± 0.018 | < 0.00367
5 | B5 | 2.37 ± 1.1 | 
6 | B6 | 0.476 ± 0.22 | 0.0192 ± 0.023
7 | B7 | 0.386 ± 0.01 | < 0.00696
8 | B8 | 0.348 ± 0.18 | 0.0116 ± 0.013
9 | B9 | 0.219 ± 0.031 | 0.00453 ± 0.003
10 | B10 | 0.361 ± 0.21 | 0.00721 ± 0.0056
11 | B11 | 0.345 ± 0.19 | < 0.00697
12 | B12 | 0.339 ± 0.05 | < 0.00971
13 | B13 | 0.276 ± 0.071 | 0.0116 ± 0.0094
14 | B14 | 0.356 ± 0.044 | 0.0138 ± 0.0038
15 | B15 | 0.22 ± 0.022 | < 0.00736
16 | B16 | 0.194 ± 0.048 | 
17 | B17 | 0.237 ± 0.048 | < 0.00753
